Where two headings read alike, the source gives them in different places.
Biological target: Mammalian PARP, isolated from Hela cell nuclear extract (Homo sapiens, UniProt P09874)
Experiment: PARP inhibition assay (FlashPlate, 3H-NAD incorporation), IC50
Format: biochemical
Experimental: In order to assess the inhibitory action of the compounds, the following assay was used to determine IC50 values (Dillon, et al., JBS., 8(3), 347-352 (2003)).
The total assay volume per well was 40 μl.
After 10 minutes incubation at 30° C. the reactions were initiated by the addition of a 10 μl reaction mixture, containing NAD (5 μM), ^3H-NAD and 30 mer double stranded DNA-oligos. Designated positive and negative reaction wells were done in combination with compound wells (unknowns) in order to calculate % enzyme activities. The plates were then shaken for 2 minutes and incubated at 30° C. for 45 minutes.
Following the incubation, the reactions were quenched by the addition of 50 μl 30% acetic acid to each well. The plates were then shaken for 1 hour at room temperature.
The plates were transferred to a TopCount NXT (TRADE MARK) (Packard, UK) for scintillation counting. Values recorded are counts per minute (cpm) following a 30 second counting of each well.
The % enzyme activity for each compound is then calculated using the following equation: […]
Such IC50 values are used as comparative values to identify increased compound potencies.

[1] = PARP from Hela cell nuclear extract, NAD 5 μM, 30° C.

IC50 [1] | IC50 | Structure (SMILES)
< 10 nM | – | O=C(c1cc(Cc2n[nH]c(=O)c3ccccc23)ccc1F)N1CCN(Cc2ccncc2)CC1 [compound 261]
< 10 nM | – | O=C(c1cccc(Cc2n[nH]c(=O)c3ccccc23)c1)N1CCCN(Cc2c[nH]c(=O)[nH]c2=O)CC1 [compound 288]
< 10 nM | – | CC(C)CCN1CCN(C(=O)c2cc(Cc3n[nH]c(=O)c4ccccc34)ccc2F)CC1 [compound 260]
< 10 nM | – | CCN1CCN(C(=O)c2cc(Cc3n[nH]c(=O)c4ccccc34)ccc2F)CC1 [compound 253]
< 10 nM | – | CN1CCC(C(=O)N2CCN(C(=O)c3cc(Cc4n[nH]c(=O)c5ccccc45)ccc3F)CC2)CC1 [compound 269]
< 10 nM | – | O=C(c1cccc(Cc2n[nH]c(=O)c3ccccc23)c1)N1CCCN(C(=O)c2ccno2)CC1 [compound 319]
< 10 nM | – | O=C(c1cccc(Cc2n[nH]c(=O)c3ccccc23)c1)N1CCN(C(=O)C2CCCCC2)CC1 [compound 30]
< 10 nM | – | O=C(c1cccc(Cc2n[nH]c(=O)c3ccccc23)c1)N1CCCN(c2ncccc2[N+](=O)[O-])CC1 [compound 32]
< 10 nM | – | O=C(c1cccc(Cc2n[nH]c(=O)c3ccccc23)c1)N1CCN(C(=S)NCCc2ccccc2)CC1 [compound 180]
< 10 nM | – | O=C(NCc1ccccc1Cl)N1CCN(C(=O)c2cccc(Cc3n[nH]c(=O)c4ccccc34)c2)CC1 [compound 164]
< 10 nM | – | O=C(c1cccc(Cc2n[nH]c(=O)c3ccccc23)c1)N1CCN(C(=O)C2COc3ccccc3O2)CC1 (stereo not shown) [compound 28]
< 10 nM | – | O=C(c1cccc(Cc2n[nH]c(=O)c3ccccc23)c1)N1CCCN(Cc2c[nH]c3ccccc23)CC1 [compound 306]
< 10 nM | – | CCCCOC(=O)c1ccc(NC(=O)N2CCN(C(=O)c3cccc(Cc4n[nH]c(=O)c5ccccc45)c3)CC2)cc1 [compound 177]
< 10 nM | – | COc1ccc(C(=O)C2CCN(C(=O)c3cccc(Cc4n[nH]c(=O)c5ccccc45)c3)CC2)cc1 [compound 18]
< 10 nM | – | Cn1cc(CN2CCCN(C(=O)c3cccc(Cc4n[nH]c(=O)c5ccccc45)c3)CC2)c2ccccc21 [compound 302]
< 10 nM | – | Cc1cccc(NC(=S)N2CCCN(C(=O)c3cccc(Cc4n[nH]c(=O)c5ccccc45)c3)CC2)c1 [compound 334]
– | < 10 nM | O=C(c1cc(Cc2n[nH]c(=O)c3ccccc23)ccc1F)N1CCCNCC1 [compound 4, 4-[3-([1,4]diazepane-1-carbonyl)-4-fluorobenzyl]-2H-phthalazin-1-one]
< 10 nM | – | CC(C)N1CCN(C(=O)c2cc(Cc3n[nH]c(=O)c4ccccc34)ccc2F)CC1 [compound 263]
< 10 nM | – | CN(C)c1ccc(NC(=S)N2CCCN(C(=O)c3cccc(Cc4n[nH]c(=O)c5ccccc45)c3)CC2)cc1 [compound 340]
< 10 nM | – | O=C(c1cc(Cc2n[nH]c(=O)c3ccccc23)ccc1F)N1CCNCC1 [compound 2, 4-[4-Fluoro-3-(piperazine-1-carbonyl)benzyl]-2H-phthalazin-1-one]

IC50 [1] | IC50 | Structure (SMILES)
< 10 nM | – | O=C(c1cccc(Cc2n[nH]c(=O)c3ccccc23)c1)N1CCN(S(=O)(=O)c2ccccc2Cl)CC1 [compound 61]
< 10 nM | – | O=C(c1cc(Cc2n[nH]c(=O)c3ccccc23)ccc1F)N1CCN(c2cccc(C(F)(F)F)c2)CC1 [compound 223]
< 10 nM | – | O=C(NCc1ccc(Cl)c(Cl)c1)N1CCN(C(=O)c2cccc(Cc3n[nH]c(=O)c4ccccc34)c2)CC1 [compound 172]
< 10 nM | – | Cc1ccccc1NC(=S)N1CCCN(C(=O)c2cccc(Cc3n[nH]c(=O)c4ccccc34)c2)CC1 [compound 349]
< 10 nM | – | CC(=O)c1cccc(NC(=S)N2CCCN(C(=O)c3cccc(Cc4n[nH]c(=O)c5ccccc45)c3)CC2)c1 [compound 339]
< 10 nM | – | O=C(c1cccc(Cc2n[nH]c(=O)c3ccccc23)c1)N1CCCN(C(=S)Nc2ccccc2)CC1 [compound 341]
< 10 nM | – | CN(C)c1ccc(NC(=S)N2CCN(C(=O)c3cccc(Cc4n[nH]c(=O)c5ccccc45)c3)CC2)cc1 [compound 187]
< 10 nM | – | CCCCN1CCN(C(=O)c2cc(Cc3n[nH]c(=O)c4ccccc34)ccc2F)CC1 [compound 251]
< 10 nM | – | O=C(c1cccc(Cc2n[nH]c(=O)c3ccccc23)c1)N1CCCN(Cc2cc3ccccc3o2)CC1 [compound 292]
< 10 nM | – | CSc1ccc(C(=O)N2CCCN(C(=O)c3cccc(Cc4n[nH]c(=O)c5ccccc45)c3)CC2)cc1 [compound 323]
< 10 nM | – | CCCCCN1CCN(C(=O)c2cc(Cc3n[nH]c(=O)c4ccccc34)ccc2F)CC1 [compound 255]
< 10 nM | – | O=C(NCc1ccc(Cl)cc1Cl)N1CCN(C(=O)c2cccc(Cc3n[nH]c(=O)c4ccccc34)c2)CC1 [compound 168]
< 10 nM | – | O=C(CCc1ccccc1)N1CCCN(C(=O)c2cccc(Cc3n[nH]c(=O)c4ccccc34)c2)CC1 [compound 322]
< 10 nM | – | O=C(c1cccc(Cc2n[nH]c(=O)c3ccccc23)c1)N1CCCN(c2nc3ccc(Cl)cc3s2)CC1 [compound 5, 4-{3-[4-(6-Chlorobenzothiazol-2-yl)-1,4-diazepan-1-ylcarbonyl]benzyl}-1(2H)-phthalazinone]
< 10 nM | – | O=C(c1cccc(Cc2n[nH]c(=O)c3ccccc23)c1)N1CCCN(c2ccc([N+](=O)[O-])cn2)CC1 [compound 34]
< 10 nM | – | CC/C=C(\C)C(=O)N1CCCN(C(=O)c2cccc(Cc3n[nH]c(=O)c4ccccc34)c2)CC1 [compound 325]
< 10 nM | – | O=C(c1cccc(Cc2n[nH]c(=O)c3ccccc23)c1)N1CCCN(C(=S)Nc2cccc(C(F)(F)F)c2)CC1 [compound 345]
< 10 nM | – | O=C(Nc1ccc(C(F)(F)F)cc1)N1CCCN(C(=O)c2cccc(Cc3n[nH]c(=O)c4ccccc34)c2)CC1 [compound 330]
< 10 nM | – | O=C(c1cccc(Cc2n[nH]c(=O)c3ccccc23)c1)N1CCCN(CCO)CC1 [compound 221]
< 10 nM | – | O=C(c1cc(Cc2n[nH]c(=O)c3ccccc23)ccc1F)N1CCN(c2ccc(F)cc2)CC1 [compound 236]

Source: patent US11160803B2, “Phthalazinone derivatives” (KUDOS PHARMACEUTICALS LIMITED, priority 2003, dated 2021)
